Reference: the supplement of paper PMC10126150
Values marked as one replicate rest on one cluster of the flow cell; about a third of the high ones do not repeat.

Each sequence was assayed on ATP (assay: switch fluorescence ratio, 500 uM ATP over buffer (Cy3 cluster intensity, sum of 5 cycles each) (fold (ratio)); higher = stronger signal-on switching upon ATP binding; sequences stand for … in TCGTCGGCAGCGTCAGATGTGTATAAGAGACAGTTTTTTTTTTTTTTTTTTTTTTTTT…TC). Details: aptamer strand: ATP DNA aptamer (quencher-CACCTGGGGGAGTATTGCGGAGGAAGG + anchor), 100 nM annealed; ATP concentration: 500 uM; one replicate.
Summary of the method: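 Exposure to 500 uM ATP lasted 15 min at 22 °C before imaging, and a selection-buffer image was taken beforehand, for Cy3-labelled switching-strand clusters on a modified Illumina MiSeq flow-cell annealed to 100 nM quencher-labelled ATP aptamer. Five buffer/ATP cycles were run with NaOH stripping and re-annealing between them. The fluorescence ratio per cluster is summed target-cycle over summed buffer-cycle Cy3 intensity, averaged per switch-domain sequence. Clusters outside 100-1000 RFU were excluded.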

| Sequence | switch fluorescence ratio |
| --- | --- |
| CTGGGTAGCT | 1.01 |
| CTGGGTGTAC | 1.05 |
| CTGGTAAGCT | 1.05 |
| CTGGTAGCTC | 1.22 |
| CTGGTCAGGT | 1.06 |
| CTGGTGGGCA | 0.97 |
| CTGGTTCATT | 1.03 |
| CTGGTTGAT | 1.17 |
| CTGGTTTATT | 0.993 |
| CTGTAAAACT | 1.01 |
| CTGTAGACAA | 3.27 |
| CTGTATGTGC | 1.05 |
| CTGTCACTA | 0.989 |
| CTGTCATTCG | 1.03 |
| CTGTCCTTCA | 1.02 |
| CTGTCGGTAC | 5.06 |
| CTGTCTGGCA | 0.991 |
| CTGTGCCTGG | 0.926 |
| CTGTGGAAAC | 1 |
| CTGTGGGCGA | 0.995 |
| CTGTGGTCGG | 0.957 |
| CTGTTACGGC | 1.02 |
| CTGTTATTCT | 1.01 |
| CTGTTCACTG | 0.993 |
| CTGTTCCGGT | 1.03 |

| Sequence | switch fluorescence ratio |
| --- | --- |
| CTGTTCTCGT | 0.954 |
| CTGTTGAACT | 0.994 |
| CTGTTTAATA | 0.95 |
| CTGTTTGCTT | 1.01 |
| CTGTTTTCTC | 0.961 |
| CTTAAAATTA | 0.999 |
| CTTAAACTTC | 1.05 |
| CTTAAAGAAA | 0.954 |
| CTTAAAGAGG | 1.01 |
| CTTAAATAAT | 0.998 |
| CTTAACGCCG | 1.04 |
| CTTAAGTATG | 1.04 |
| CTTACCTGCA | 1.63 |
| CTTACGGTCT | 1.04 |
| CTTACTGTCA | 1.07 |
| CTTAGAAAAT | 0.958 |
| CTTAGACAAA | 0.927 |
| CTTAGACCAC | 0.973 |
| CTTAGAGGTA | 0.937 |
| CTTAGATCAT | 0.994 |
| CTTAGCCATT | 1.02 |
| CTTAGTGGCC | 0.991 |
| CTTAGTTCAA | 0.961 |
| CTTATAAAAA | 1.02 |
| CTTATAAGGT | 0.992 |

| Sequence | switch fluorescence ratio |
| --- | --- |
| CTTATCCGAT | 1.01 |
| CTTATGAAAA | 0.985 |
| CTTATGGCGA | 0.987 |
| CTTATGTCTT | 0.95 |
| CTTATTCAC | 0.976 |
| CTTATTGCAC | 1.04 |
| CTTCAAAACC | 1.06 |
| CTTCAAGAT | 1.19 |
| CTTCACGCAG | 1.11 |
| CTTCACGTCG | 0.985 |
| CTTCAGATTG | 0.996 |
| CTTCAGGCTT | 0.94 |
| CTTCATTCAG | 1.01 |
| CTTCCCCGAA | 4.22 |
| CTTCCCGAGA | 1.13 |
| CTTCCCTATT | 1.06 |
| CTTCCCTCAG | 1.54 |
| CTTCCTACAA | 3.36 |
| CTTCGCGAAA | 1.43 |
| CTTCGCTTTG | 1.22 |
| CTTCGGAAGG | 1.13 |
| CTTCGGTATC | 1.67 |
| CTTCGTATCT | 1.65 |
| CTTCTAGT | 0.978 |
| CTTCTAGTCA | 0.964 |

| Sequence | switch fluorescence ratio |
| --- | --- |
| CTTCTATGTG | 0.97 |
| CTTGAAACGA | 1 |
| CTTGAAAGAA | 1.17 |
| CTTGAATTGT | 0.98 |
| CTTGACGGCC | 0.978 |
| CTTGACTTTA | 1.06 |
| CTTGAGTTAT | 0.979 |
| CTTGATGCAC | 1.09 |
| CTTGCAGAGT | 1.01 |
| CTTGCCCTCG | 1.01 |
| CTTGCGACCA | 1.22 |
| CTTGCGCCGC | 2.51 |
| CTTGGACGGA | 0.976 |
| CTTGGATAAT | 1 |
| CTTGGCGTGT | 1.02 |
| CTTGGTAGTT | 0.918 |
| CTTGGTGTAG | 1.01 |
| CTTGGTGTTT | 0.983 |
| CTTGGTTTGG | 1.01 |
| CTTGTAACTC | 1.03 |
| CTTGTACATA | 0.987 |
| CTTGTACCCC | 1.12 |
| CTTGTCTTTC | 1.05 |
| CTTGTGCGTG | 0.982 |
| CTTGTGCTCG | 0.979 |

| Sequence | switch fluorescence ratio |
| --- | --- |
| CTTGTTCTCG | 0.976 |
| CTTTAAAGTC | 1.03 |
| CTTTAAATGC | 1.46 |
| CTTTAACTGC | 1.01 |
| CTTTAAGCAG | 1.08 |
| CTTTAGAACC | 1 |
| CTTTAGATGA | 1.06 |
| CTTTATCGT | 1.01 |
| CTTTATGGAT | 1.05 |
| CTTTATGTCA | 0.962 |
| CTTTATTA | 1.01 |
| CTTTATTGTT | 0.966 |
| CTTTCAAGGC | 1.21 |
| CTTTCCTTTG | 1.05 |
| CTTTCTGATG | 1 |
| CTTTGAAAGG | 0.931 |
| CTTTGCTGAA | 0.983 |
| CTTTGGTTA | 0.949 |
| CTTTGTTGGA | 1.03 |
| CTTTTCGGTA | 0.983 |
| CTTTTGACCC | 1 |
| CTTTTGCTTG | 0.988 |
| CTTTTGTAT | 0.937 |
| CTTTTTACGC | 1.04 |
| CTTTTTAGGG | 0.998 |

| Sequence | switch fluorescence ratio |
| --- | --- |
| CTTTTTTGAG | 0.975 |
| GAAAAAACGC | 1.06 |
| GAAAAAAGCC | 1.01 |
| GAAAAAGTAG | 1.04 |
| GAAAAAGTG | 0.991 |
| GAAAAAGTTA | 0.966 |
| GAAAACCTTG | 0.973 |
| GAAAACGACG | 1.07 |
| GAAAACGAGT | 0.969 |
| GAAAACTGT | 0.983 |
| GAAAACTTAT | 1.06 |
| GAAAAGATCT | 1.01 |
| GAAAAGCTCG | 0.965 |
| GAAAATAGCC | 1.1 |
| GAAAATCGTC | 1.04 |
| GAAAATCTTT | 0.992 |
| GAAACACCCA | 1.07 |
| GAAACCCGGG | 1.03 |
| GAAACCGCGT | 1.13 |
| GAAACGGTAG | 0.978 |
| GAAACTGCTA | 1.06 |
| GAAACTGTAG | 1.05 |
| GAAACTTAGA | 0.99 |
| GAAAGCTTGT | 1 |
| GAAAGGACGT | 0.966 |

| Sequence | switch fluorescence ratio |
| --- | --- |
| GAAAGGTCTT | 1.08 |
| GAAAGGTGGT | 1 |
| GAAAGTATAC | 1.94 |
| GAAAGTATG | 1.03 |
| GAAAGTCA | 0.967 |
| GAAATAGTCG | 0.997 |
| GAAATCGAGT | 0.943 |
| GAAATCGGAG | 1.06 |
| GAAATGCAGG | 1.09 |
| GAAATGGGAT | 0.984 |
| GAAATGTGGA | 0.999 |
| GAAATTAAAA | 0.938 |
| GAAATTCAAT | 1 |
| GAAATTGGGC | 0.94 |
| GAACAAGGCT | 0.985 |
| GAACAAGTGC | 1.11 |
| GAACACGCGC | 1.05 |
| GAACAGGCGA | 1.07 |
| GAACATCCGG | 1 |
| GAACCTCCTG | 1.13 |
| GAACGACACG | 1.16 |
| GAACGATTAA | 0.984 |
| GAACGCGCTA | 1.23 |
| GAACGCGGGA | 1.05 |
| GAACGGGCGA | 1.06 |

| Sequence | switch fluorescence ratio |
| --- | --- |
| GAACGGGCGG | 0.991 |
| GAACGGGGGC | 1.09 |
| GAACGTATCC | 1.11 |
| GAACGTATT | 1.06 |
| GAACTGAGTT | 1.01 |
| GAACTTCTTC | 1.04 |
| GAAGAAAGTA | 0.965 |
| GAAGAAGTGA | 0.986 |
| GAAGAAGTGG | 0.983 |
| GAAGACATAT | 1.1 |
| GAAGACATTT | 0.98 |
| GAAGAGTATC | 0.987 |
| GAAGATCGCG | 0.987 |
| GAAGCATCGG | 1.15 |
| GAAGCATTTG | 1.07 |
| GAAGCCCCTC | 1.05 |
| GAAGCCCTTT | 0.94 |
| GAAGCGCATT | 1.11 |
| GAAGCGGGGT | 0.926 |
| GAAGCGGTTG | 1.02 |
| GAAGGACTAG | 0.961 |
| GAAGGAGAAA | 1 |
| GAAGGATGAC | 1.05 |
| GAAGGCGTA | 1.06 |
| GAAGGGATCC | 1.04 |
